{"source": "PubChem BioAssay AID504832", "about": "(National Center for Advancing Translational Sciences (NCATS), 2011)", "note": "About 18,000 (5.8%) of roughly 310,000 compounds were called active. The shares of active, inactive and inconclusive entries below differ from those in the screen. The call rests on the fitted dose curve; in most records, active means well fitted inhibition curve with a large enough effect; inconclusive means small, poorly fitted or top-dose-only effect, or another doubt; inactive means no such curve, though single readings can be large or run the other way. Potencies of inconclusive entries are left out as doubtful fits. On the % scale 0 is the no-effect control and ±100 the full control effect; potency means the concentration at half of the fitted maximal effect; tags describe the fitted curve by direction and shape."}
{"experiment": "Primary qHTS for delayed death inhibitors of the malarial parasite plastid, 48 hour incubation", "conditions": "P. falciparum luciferase growth in erythrocytes; series mostly up to 28.7 µM; activity change, negative = inhibition: at the top concentration", "summary_of_the_method": "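Here the parasites carry a stable luciferase gene and grow inside erythrocytes in Albumax-based RPMI medium with compound for one erythrocytic cycle. Activity is scored as loss of luminescent signal.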"}
{"smiles": "Cc1ccc(CSc2nnc3nc(C)cc(C)n23)cc1", "Potency": "inconclusive [inhibitor, single point]"}
{"smiles": "COc1ccc(C)cc1NC(=O)CCN1CCN(c2ccccc2)CC1", "Potency": "inconclusive [inhibitor, partial curve]"}
{"smiles": "CC(C(=O)N1c2ccccc2Sc2ccccc21)n1nnc(-c2cccs2)n1", "note": "(stereo not given)", "Potency": "inconclusive [inhibitor, single point]"}
{"smiles": "CN(C)CCCCCCN(C)C", "activity change, negative = inhibition": "inactive: 2.77%"}
{"smiles": "O=C(COc1ccccc1)NCC(c1ccco1)N1CCCCC1", "note": "(stereo not given)", "Potency": "inconclusive [inhibitor, single point]"}
{"smiles": "COc1ccc([C@@H]2CC=C(C(=O)O)[C@H](c3ccccc3)N2S(=O)(=O)c2ccc(C)cc2)cc1OC", "Potency": "inconclusive [inhibitor, single point]"}
{"smiles": "O=C(NCc1ccccn1)c1ccc(Br)s1", "Potency": "active: 3.7 µM"}
{"smiles": "CC(C)(C)c1ccc(OCCOc2ccc(C(C)(C)C)cc2NC=O)c(NC=O)c1", "Potency": "active: 10.4 µM"}
{"smiles": "O=C(CSc1nnc(-c2cccc(S(=O)(=O)N3CCOCC3)c2)n1C1CCCCCC1)NCc1ccccc1", "Potency": "inconclusive [inhibitor, partial curve]"}
{"smiles": "O=C(CN1C(=O)/C(=C\\c2ccc(F)cc2)Oc2ccccc21)NCc1ccco1", "activity change, negative = inhibition": "inactive: -2.68%"}
{"smiles": "O=C(CN1CCN(Cc2ccccc2)CC1)Nc1cccc(C(F)(F)F)c1", "activity change, negative = inhibition": "inactive: 2.33%"}
{"smiles": "CCCCc1cc(=O)oc2cc(C)cc(O)c12", "Potency": "inconclusive [inhibitor, single point]"}
{"smiles": "O=C(N1CCN(c2ccccc2F)CC1)C12CC3CC(CC(C3)C1)C2", "Potency": "inconclusive [inhibitor, single point]"}
{"smiles": "CCc1ccc(N(CC(=O)NCC2CCCO2)C(=O)CCC(=O)Nc2nccs2)cc1", "note": "(stereo not given)", "Potency": "inconclusive [inhibitor, single point]"}
{"smiles": "Cn1c(=O)c(C(=O)Nc2cnccn2)c(O)c2ccccc21", "activity change, negative = inhibition": "inactive: 23.1%"}
{"smiles": "Cc1nnc2ccc(-c3cccc(NC(=O)c4ccc(Cl)nc4)c3)nn12", "Potency": "inconclusive [inhibitor, partial curve, poor fit]"}
{"smiles": "Cc1ccc(C(=O)O/N=C(\\N)c2ccccn2)cc1", "Potency": "inconclusive [inhibitor, single point]"}
{"smiles": "CCCN(CC(=O)Nc1ccccc1C)CC(=O)Nc1ccc(Br)cc1F", "Potency": "inconclusive [inhibitor, partial curve, poor fit]"}
{"smiles": "OC(CNc1nc(C(F)(F)F)nc2ccccc12)c1ccccc1", "note": "(stereo not given)", "Potency": "inconclusive [inhibitor, single point]"}
{"smiles": "COC(=O)C1=CN(Cc2ccccc2)C=C(C(=O)OC)C1c1ccc(OC)c(OC)c1", "Potency": "inconclusive [inhibitor, partial curve, poor fit]"}
{"smiles": "Cc1noc(C)c1-c1ccc2ncnc(NCC3CCCCN3C)c2c1", "note": "(stereo not given)", "Potency": "active: 4.15 µM"}
{"smiles": "CCn1cc([C@@H]2C[C@H]3CN(Cc4cccc(Cl)c4)C(=O)[C@]34CCCN24)cn1", "Potency": "inconclusive [inhibitor, single point]"}
{"smiles": "Cc1ccc(C)c(NC(=O)Cn2cc(C(=O)C3CC3)c3ccccc32)c1", "Potency": "inconclusive [inhibitor, partial curve, poor fit]"}
{"smiles": "O=C1C=C(c2ccc(Cl)c(C(F)(F)F)c2)C[C@@H](c2ccc3c(c2)OCO3)C1", "Potency": "inconclusive [inhibitor, single point]"}
{"smiles": "CSc1nnc(CNS(=O)(=O)c2ccc(Cl)cc2)n1C", "activity change, negative = inhibition": "inactive: -7.53%"}
{"smiles": "CN(C)c1ccc(CN(C(=O)COc2ccc(Br)cc2)C2CCS(=O)(=O)C2)cc1", "note": "(stereo not given)", "Potency": "inconclusive [inhibitor, single point]"}
{"smiles": "COc1ccc(C(=O)NCC(C)C)c(OC)c1", "Potency": "inconclusive [inhibitor, partial curve, poor fit]"}
{"smiles": "CN1C(C(=O)NCc2ccc(OC(F)(F)F)cc2)CC2Cn3c(nc4ccccc43)C21", "note": "(stereo not given)", "activity change, negative = inhibition": "inactive: -29.4%"}
{"smiles": "CN1C(=S)N(c2ccccc2)C(=O)/C1=C/c1ccco1", "activity change, negative = inhibition": "inactive: 12.6%"}
{"smiles": "O=C(NC(Cc1c[nH]c2ccccc12)C(=O)NCc1ccc(F)cc1)OCc1ccccc1", "note": "(stereo not given)", "activity change, negative = inhibition": "inactive: 11.5%"}
{"smiles": "O=c1cc(O)c2ccccc2n1Cc1ccccc1", "Potency": "inconclusive [inhibitor, partial curve, poor fit]"}
{"smiles": "Cc1cc(C)c2cc(CN(CC3CCCO3)C(=S)NCc3ccco3)c(=O)[nH]c2c1", "note": "(stereo not given)", "Potency": "inconclusive [inhibitor, partial curve]"}
{"smiles": "CC(=O)N1CCN(CCS(=O)(=O)c2ccc(Br)cc2)CC1", "activity change, negative = inhibition": "inactive: -8.16%"}
{"smiles": "COc1ccc(C(=O)N/N=C(\\C)CC(=O)Nc2ccc3c(c2)OCO3)cc1", "activity change, negative = inhibition": "inactive: -1.09%"}
{"smiles": "CCOCCCNC(=O)CSc1nnc(-c2ccc(S(=O)(=O)N3CCCC3)cc2)n1C", "activity change, negative = inhibition": "inactive: -16.7%"}
{"smiles": "CC(C)Oc1ccc(S(=O)(=O)N2CCCCC2)cc1NC(=O)C1=COCCO1", "Potency": "inconclusive [inhibitor, partial curve]"}
{"smiles": "Cn1c(CNC(=O)c2cccs2)nnc1SCC(=O)Nc1ccc(Cl)cc1", "Potency": "active: 11.7 µM"}
{"smiles": "Cc1cc2nc(SCC(=O)N(C)C)c3c(c2cc1C)CCCC3", "activity change, negative = inhibition": "inactive: 20.7%"}
{"smiles": "Cc1cc(NC(=O)CCC(=O)N(Cc2cccs2)C(C(=O)NC2CCCC2)c2ccccc2)no1", "note": "(stereo not given)", "Potency": "inconclusive [inhibitor, single point]"}
{"smiles": "Cc1nnc(SCC(=O)n2c3c(c4ccccc42)CCCC3)s1", "activity change, negative = inhibition": "inactive: 28.7%"}
{"smiles": "Cc1cc(=O)oc2cc(NC(=O)CCOc3ccccc3)ccc12", "activity change, negative = inhibition": "inactive: 49.7%"}
{"smiles": "CCCCN(C(=O)C1CC(=O)N(CCc2ccc(OC)c(OC)c2)C1)c1c(N)n(CCCC)c(=O)[nH]c1=O", "note": "(stereo not given)", "Potency": "inconclusive [inhibitor, single point]"}
{"smiles": "CCOC(=O)Cc1csc(/N=C/c2c(O)n(-c3ccccc3C(F)(F)F)c(=O)c3ccccc23)n1", "Potency": "inconclusive [inhibitor, single point]"}
{"smiles": "Cc1ccc(S(=O)(=O)N(C)c2ccc(C(=O)N(CC(C)C)C3CCS(=O)(=O)C3)cc2)cc1", "note": "(stereo not given)", "Potency": "inconclusive [inhibitor, single point]"}
{"smiles": "COc1ccc(C(=O)N2CCN(C3CCCCC3)CC2)cc1OC", "activity change, negative = inhibition": "inactive: -19.6%"}
